According to the supplement of paper PMC11060735:
Several values for one entry are separate records, joined by “and”; a condition that tells them apart may be missing. Identical values can stand only once. Hit rate of the full screen: of about 1,800 compounds, about 50 (3%) showed activity. The list shows a part of the results.

tested on: mouse p16Ink4a+/- lung fibroblasts (INKBRITE, bleomycin-injured); test: percentage of GFP+ (p16Ink4a+) fibroblasts among all cells in well; higher = less depletion of p16Ink4a+ cells, active = 20 or less; settings: 1 µM; 3 days
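Further: fibroblasts sorted 14 days after bleomycin, GFP+ and GFP− mixed 1:1 in 384-well plates (GFP− as in-well control), imaged after Hoechst and NucView530 staining, reference wells lacked compound.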

| Compound | percentage of GFP+ |
| --- | --- |
| Cc1ccc(Sc2ccccc2N2CCNCC2)c(C)c1 [Vortioxetine HBr] | inactive: 48.5% |
| COc1cc2nccc(Oc3ccc(NC(=O)Nc4cc(C)on4)c(Cl)c3)c2cc1OC [Tivozanib] | inactive: 28.8% |
| C[N+](C)(C)CCO [Choline] | inactive: 39.1% |
| Cc1cc(N2CCOCC2)ccc1Nc1nc(NC2CCCCC2)c2[nH]cnc2n1 | inactive: 33.6% |
| C=CCn1c(=O)c2cnc(Nc3ccc(N4CCN(C)CC4)cc3)nc2n1-c1cccc(C(C)(C)O)n1 | inactive: 41.6% |
| CCCNS(=O)(=O)Nc1ncnc(OCCOc2ncc(Br)cn2)c1-c1ccc(Br)cc1 [Macitentan] | inactive: 46.3% |
| Cc1ccc(-c2cc(C(F)(F)F)nn2-c2ccc(S(N)(=O)=O)cc2)cc1 [Celecoxib] | inactive: 38.4% |
| Clc1ccc(CCC(Cn2ccnc2)Sc2c(Cl)cccc2Cl)cc1 (stereo not given) [Butoconazole] | inactive: 39.6% |
| CS(=O)(=O)N1CCN(Cc2cc3nc(-c4cccc5[nH]ncc45)nc(N4CCOCC4)c3s2)CC1 | inactive: 36.8% |
| O=C(O)c1ccccc1Nc1cccc(C(F)(F)F)c1 [Flufenamic Acid] | inactive: 46.4% |
| CN(C)N=Nc1[nH]cnc1C(N)=O [Dacarbazine] | inactive: 45% |
| Nc1nc2ccc(OC(F)(F)F)cc2s1 [Riluzole] | inactive: 43.2% |
| CC(O)C1C(=O)N2C(C(=O)O)=C(SC3CNC(C(=O)N(C)C)C3)C(C)C12 (stereo not given) [Meropenem] | inactive: 34.6% |
| OC[C@H]1O[C@H](O[C@]2(CCl)O[C@H](CCl)[C@@H](O)[C@@H]2O)[C@H](O)[C@@H](O)[C@H]1Cl [Sucralose] | inactive: 45.5% |
| c1ccc(-c2nn3c(c2-c2ccnc4cc(OCCN5CCOCC5)ccc24)CCC3)nc1 | inactive: 50.5% |
| COC(=O)[C@H](CCCN=C(N)N)NS(=O)(=O)c1ccc(C)cc1 | inactive: 38.8% |
| C[C@H]1COC2=C1C(=O)C(=O)c1c2ccc2c1CCCC2(C)C [Cryptotanshinone] | inactive: 40% |
| COc1cc(Nc2ncc(F)c(Nc3ccc4c(n3)NC(=O)C(C)(C)O4)n2)cc(OC)c1OC | inactive: 37.2% and inactive: 37.5% |
| CC(C)N(C[C@H]1O[C@@H](n2cnc3c(N)ncnc32)[C@H](O)[C@@H]1O)C1CC(CCc2nc3cc(C(C)(C)C)ccc3[nH]2)C1 (stereo not given in full) | inactive: 46.6% |
| CCCSc1nc(N[C@@H]2C[C@H]2c2ccc(F)c(F)c2)c2nnn([C@@H]3C[C@H](OCCO)[C@@H](O)[C@H]3O)c2n1 [Ticagrelor] | inactive: 30.8% |
| CC(C)OC(=O)C(C(=O)OC(C)C)=C1SC=CS1 [Malotilate] | inactive: 28.9% |
| COc1ccc(-c2cc3c(C)nc(N)nc3n([C@H]3CC[C@H](OCCO)CC3)c2=O)cn1 | inactive: 41.3% |
| NC(=O)c1cn(Cc2c(F)cccc2F)nn1 [Rufinamide] | inactive: 36.1% |
| COc1cc(C(=O)NS(=O)(=O)c2ccccc2C)ccc1Cc1cn(C)c2ccc(NC(=O)OC3CCCC3)cc12 [Zafirlukast] | inactive: 47.1% |

| Compound | percentage of GFP+ |
| --- | --- |
| COC(=O)[C@@H]1[C@H]2C[C@H]3c4[nH]c5ccccc5c4CCN3C[C@@H]2CC[C@@H]1O [Yohimbine] | inactive: 40% |
| Cn1cc(C2=C(c3cn(CCCSC(=N)N)c4ccccc34)C(=O)NC2=O)c2ccccc21 | inactive: 58.4% |
| CC(C)(C)c1cc(/C=C(\C#N)C(N)=S)cc(C(C)(C)C)c1O [Tyrphostin] | inactive: 50.3% |
| CC(/C=C/C(=O)NO)=C\[C@@H](C)C(=O)c1ccc(N(C)C)cc1 [Trichostatin A] | active: 10.8% |
| Cc1cnc(-c2cc(N3CCN(C(=O)CCS(C)(=O)=O)CC3)ncc2Cl)c(C)c1 | inactive: 51.1% |
| CC(=O)[C@H]1CC[C@H]2[C@@H]3C=CC4=CC(=O)CC[C@@]4(C)[C@@H]3CC[C@]12C [Dydrogesterone] | inactive: 49% |
| CO[C@@H]1[C@@H](OC(N)=O)[C@@H](O)[C@H](Oc2ccc3c(O)c(NC(=O)c4ccc(O)c(CC=C(C)C)c4)c(=O)oc3c2C)OC1(C)C [Novobiocin] | inactive: 41.2% |
| Nc1ncnc2c1c(-c1cccc(OCc3ccccc3)c1)cn2[C@H]1C[C@@H](CN2CCC2)C1 | inactive: 42.2% |
| Clc1ccc(C2(c3ccc(-c4cn[nH]c4)cc3)CCNCC2)cc1 | inactive: 43.8% |
| COc1ccccc1OCC(O)CO (stereo not given) [Guaifenesin] | inactive: 38.7% |
| Nc1nc(CC(=O)Nc2ccc(CCNC[C@H](O)c3ccccc3)cc2)cs1 [Mirabegron] | inactive: 51.4% |
| Nc1ncnc2c1c(-c1cccc(OCc3ccccc3)c1)cn2[C@H]1C[C@H](CN2CCCC2)C1 | inactive: 43.3% |
| CN(C)Cc1cccc(/N=C(\c2ccccc2)c2c(O)[nH]c3cc(C(=O)N(C)C)ccc23)c1 | inactive: 40.2% |
| Cc1cc(C)c(/C=C2\C(=O)Nc3ccccc32)[nH]1 [Semaxanib] | inactive: 55.4% |
| Cc1cc(C(C)(C)C)c(O)c(C)c1CC1=NCCN1 [Oxymetazoline] | inactive: 39.9% |
| CC(C)N(CCCNC(=O)Nc1ccc(C(C)(C)C)cc1)C[C@H]1O[C@@H](n2ccc3c(N)ncnc32)[C@H](O)[C@@H]1O | inactive: 48% and inactive: 54.1% |
| CN(N=O)C(=O)N[C@@H]1[C@@H](O)[C@H](O)[C@@H](CO)O[C@@H]1O [Streptozocin] | inactive: 40.8% |
| CN(C)CCCN1c2ccccc2CCc2ccc(Cl)cc21 [Clomipramine] | inactive: 45% |
| CC(C)n1cnc2c(NCCc3ccc(O)cc3)nc(-c3csc4ccccc34)nc21 [StemRegenin 1] | inactive: 46.4% |
| CC/C(=C(/CC)c1ccc(O)cc1)c1ccc(O)cc1 [Diethylstilbestrol] | inactive: 38.5% |
| CC1(C)Cc2c(-c3ccccc3)c(-c3ccc(Cl)cc3)c(CC(=O)O)n2C1 [Licofelone] | inactive: 52.2% |
| CCC(=O)O[C@]1(C(=O)CCl)[C@@H](C)C[C@H]2[C@@H]3C[C@H](F)C4=CC(=O)C=C[C@]4(C)[C@@]3(F)[C@@H](O)C[C@@]21C [Halobetasol Propionate] | inactive: 43.7% |
| Cc1cccc(C)c1OCC(C)N (stereo not given) [Mexiletine] | inactive: 46% |
| COc1ccc2c(c1)C(=O)N(CCc1ccc(S(=O)(=O)NC(=O)NC3CCCCC3)cc1)C(=O)C2(C)C [Gliquidone] | inactive: 42.7% |

| Compound | percentage of GFP+ |
| --- | --- |
| O=c1c(O)c(-c2ccc(O)c(O)c2)oc2cc(O)cc(O)c12 [Quercetin] | inactive: 34.7% and inactive: 42.2% |
| CCCc1cc(C)nc(O)c1CNC(=O)c1cc(-c2ccc(N3CCN(C(C)C)CC3)nc2)cc2c1cnn2C(C)C | inactive: 39.6% |
| COc1cc(F)c(C(C)C)cc1-c1ccc(C(F)(F)F)cc1CN1C(=O)O[C@H](c2cc(C(F)(F)F)cc(C(F)(F)F)c2)[C@@H]1C [Anacetrapib] | inactive: 44.7% |
| CC(C)(C#N)c1ccc(N2C(=O)OCc3cnc4ccc(-c5cnc6ccccc6c5)cc4c32)cc1 | inactive: 39% |
| CCS(=O)(=O)N1CC(CC#N)(n2cc(-c3ncnc4[nH]ccc34)cn2)C1 [Baricitinib] | inactive: 55.6% |
| Nc1ncnc2[nH]cnc12 [Adenine] | inactive: 37.5% |
| C[N+](C)(C)C[C@H](O)CC(=O)O [L-carnitine] | inactive: 39.4% |
| CCOC(CN1CCN(CC(C)C(=O)c2ccccc2)CC1)c1ccccc1 (stereo not given) [Eprazinone] | inactive: 41.7% |
| CO[C@@H]1[C@@H](O[C@H]2O[C@@H](C)[C@H](O[C@@H]3C[C@](C)(O)[C@H](O)[C@@H](C)O3)[C@@H](N(C)C)[C@@H]2O)[C@@H](CC=O)C[C@@H](C)[C@@H](O[C@H]2CC[C@H](N(C)C)[C@H](C)O2)/C=C/C=C/C[C@@H](C)OC(=O)C[C@H]1O [Spiramycin] | inactive: 35.8% |
| Cc1cc(OCc2nnc(SC3CCCC3)n2-c2cccnc2)ccc1-c1ccc(S(C)(=O)=O)cc1 | inactive: 28.6% |
| Cc1cnc(C(=O)O)c[n+]1[O-] [Acipimox] | inactive: 36% |
| O=C1NC(=O)/C(=C\c2ccc(-c3ccc(F)cc3)o2)S1 | inactive: 52.3% |
| CC(C)Oc1ccc2c(=O)c(-c3ccccc3)coc2c1 [Ipriflavone] | inactive: 41.7% |
| CN[C@H](CC(=O)O)C(=O)O [N-methyl-d-aspartic Acid] | inactive: 45.9% |
| O=C(N/N=C/c1ccc([N+](=O)[O-])o1)c1ccc(O)cc1 [Nifuroxazide] | inactive: 48.3% |
| O=C(c1ccc(Nc2nccc(-c3cc4ccccc4s3)n2)cc1)N1CCC(N2CCCC2)CC1 [IKK-16 (IKK Inhibitor VII)] | inactive: 22.3% |
| CNC(=O)CN(CCN(CCN(CC(=O)O)CC(=O)NC)CC(=O)O)CC(=O)O [Omniscan, Gadodiamide hydrate] | inactive: 35.9% |
| CCOC(=O)[C@H](CCc1ccccc1)N[C@H]1CS[C@H](c2cccs2)CN(CC(=O)O)C1=O [Temocapril] | inactive: 45.2% |
| O=S(=O)(O)NC1CCCCC1 [Cyclamic Acid] | inactive: 42.8% |
| COc1ccc(O)cc1 [Mequinol] | inactive: 56.1% |
| C[C@@H]1C[C@H]2[C@@H]3CCC4=CC(=O)C=C[C@]4(C)[C@@]3(Cl)[C@@H](O)C[C@]2(C)[C@@]1(OC(=O)c1ccco1)C(=O)CCl [Mometasone Furoate] | inactive: 37.2% |
| Cc1cc2c(s1)Nc1ccccc1N=C2N1CCN(C)CC1 [Olanzapine] | inactive: 48.3% |
